Reference: patent publication US20070142282A1
These are yes or no findings as the source states them, for the method shown. For some assays here: In cells and extracts the contact can be indirect. Some results given as binding are weak or reduced against the parent protein; the word gives no strength. For some assays here: Sequences can lack the tags named with a protein.

Protein sequences, listed by entry. Tags and fused reporters are not part of them. Residues count along the entry.
UniProt P16234, residues 24-524: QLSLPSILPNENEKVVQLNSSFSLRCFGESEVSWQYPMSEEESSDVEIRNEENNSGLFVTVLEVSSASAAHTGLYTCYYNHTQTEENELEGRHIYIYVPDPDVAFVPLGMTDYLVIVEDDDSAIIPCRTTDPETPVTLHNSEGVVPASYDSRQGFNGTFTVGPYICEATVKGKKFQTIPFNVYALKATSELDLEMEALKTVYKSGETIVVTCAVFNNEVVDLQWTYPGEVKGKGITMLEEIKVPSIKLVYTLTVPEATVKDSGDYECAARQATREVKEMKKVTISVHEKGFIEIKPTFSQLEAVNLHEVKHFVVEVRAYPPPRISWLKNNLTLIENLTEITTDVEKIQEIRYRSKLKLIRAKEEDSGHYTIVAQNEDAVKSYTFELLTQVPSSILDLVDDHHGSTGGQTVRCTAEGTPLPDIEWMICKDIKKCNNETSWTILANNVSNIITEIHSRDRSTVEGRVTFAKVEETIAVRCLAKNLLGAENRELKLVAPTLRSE

How the values were obtained:
[1] = target: PDGF receptor α-Ig fusion protein (UniProt P16234); assay: precipitation of 35S-labelled medium with PDGF receptor α-Ig, protein A-sepharose, 12% PAGE
[2] = target: PDGF receptor α-Ig fusion protein (UniProt P16234); assay: precipitation of 35S-labelled medium with PDGF receptor α-Ig, protein A-sepharose, SDS-PAGE
[3] = target: PDGF receptor β-Ig fusion protein (UniProt P09619); assay: precipitation of 35S-labelled protein with PDGF receptor β-Ig, protein A-sepharose, 12% PAGE
[4] = target: T1, neuropilin-2-Ig fusion protein (UniProt O60462); assay: pull-down of 35S-labelled 293T conditioned medium with NP2-Ig, SDS-PAGE, autoradiography
T1 sequence (looked up): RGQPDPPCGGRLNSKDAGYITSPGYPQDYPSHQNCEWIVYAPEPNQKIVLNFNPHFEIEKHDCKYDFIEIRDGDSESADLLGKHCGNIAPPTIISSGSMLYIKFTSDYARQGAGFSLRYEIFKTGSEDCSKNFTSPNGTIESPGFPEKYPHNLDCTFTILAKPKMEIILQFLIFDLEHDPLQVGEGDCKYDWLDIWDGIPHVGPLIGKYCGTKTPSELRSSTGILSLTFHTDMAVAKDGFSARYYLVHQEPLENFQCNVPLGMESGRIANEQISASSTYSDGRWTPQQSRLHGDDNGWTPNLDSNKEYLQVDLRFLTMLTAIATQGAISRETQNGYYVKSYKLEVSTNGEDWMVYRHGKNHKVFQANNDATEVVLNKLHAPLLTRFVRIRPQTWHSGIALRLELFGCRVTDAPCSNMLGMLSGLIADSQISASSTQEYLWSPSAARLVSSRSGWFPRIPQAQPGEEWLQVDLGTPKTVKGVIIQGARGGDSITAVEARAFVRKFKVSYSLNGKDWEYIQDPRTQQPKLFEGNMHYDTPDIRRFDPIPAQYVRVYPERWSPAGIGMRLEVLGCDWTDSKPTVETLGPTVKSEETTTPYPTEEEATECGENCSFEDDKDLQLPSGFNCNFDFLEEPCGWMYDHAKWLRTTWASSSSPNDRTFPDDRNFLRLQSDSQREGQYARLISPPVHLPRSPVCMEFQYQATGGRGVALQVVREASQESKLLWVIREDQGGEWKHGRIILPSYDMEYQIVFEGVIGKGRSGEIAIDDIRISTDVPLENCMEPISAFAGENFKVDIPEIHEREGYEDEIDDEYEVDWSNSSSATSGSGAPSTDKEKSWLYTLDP

| Substance | binding [1] | binding [2] | binding [3] | binding [4] |
| --- | --- | --- | --- | --- |
| PDGF-B (from UniProt P01127 82-190) (ligand) | binds | binds | – | – |
| PDGF-CΔN (from UniProt Q9NRA1 242-345) (ligand) | binds | – | no binding | – |
| VEGF-A165 (from UniProt P15692 207-395) (ligand) | – | – | – | binds |
